Data: the supplement of paper PMC12067230
Single values of this set are uncertain.

test: amyloid nucleation score relative to library mode (yeast Sup35 reporter selection) (log enrichment difference); higher = more amyloid nucleation; sequences are the first 22 residues of the Bri2 peptide extended by up to 12 random residues; settings: random library (experiment): 1;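 active = nucleation score significantly above 0 at FDR 0.05; inactive = not significantly above 0 or absent from output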
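Note: [psi-pin-] Saccharomyces cerevisiae expressing SupN fusions, induced by 100 µM Cu2SO4, selected 7 d at 30 °C without adenine and uracil, scored by deep sequencing of output versus input.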

Sequence | amyloid nucleation score
EASNCFAIRHFENKFAVETLICFYTYGQLIKHMA | inactive
EASNCFAIRHFENKFAVETLICFYVSINM | 1.33
EASNCFAIRHFENKFAVETLICGA | inactive
EASNCFAIRHFENKFAVETLICGAAPTPRHSSGE | inactive
EASNCFAIRHFENKFAVETLICGAAVTGARTCGV | inactive
EASNCFAIRHFENKFAVETLICGAGCCRPERSAG | inactive
EASNCFAIRHFENKFAVETLICGAGNN | inactive
EASNCFAIRHFENKFAVETLICGAKVRWHDRTVG | 0.0198
EASNCFAIRHFENKFAVETLICGALRAEFAFPRG | inactive
EASNCFAIRHFENKFAVETLICGAMLNCEINETR | 8.02
EASNCFAIRHFENKFAVETLICGANMTVRRVDGL | 2.36
EASNCFAIRHFENKFAVETLICGANRPLW | inactive
EASNCFAIRHFENKFAVETLICGAPP | inactive
EASNCFAIRHFENKFAVETLICGAQGALLDGRQG | inactive
EASNCFAIRHFENKFAVETLICGAQRCLISIGLE | inactive
EASNCFAIRHFENKFAVETLICGAQWSSTSLCEM | inactive
EASNCFAIRHFENKFAVETLICGARRDARSAGPA | inactive
EASNCFAIRHFENKFAVETLICGARRTSSFRGNP | -0.203
EASNCFAIRHFENKFAVETLICGASCVYYAVAFR | inactive
EASNCFAIRHFENKFAVETLICGASGSQFAWEPR | inactive

Sequence | amyloid nucleation score
EASNCFAIRHFENKFAVETLICGASNVPRREVPA | inactive
EASNCFAIRHFENKFAVETLICGASRDCMVRCAA | inactive
EASNCFAIRHFENKFAVETLICGASS | inactive
EASNCFAIRHFENKFAVETLICGASVYNSCDIAS | inactive
EASNCFAIRHFENKFAVETLICGASWPRVSERVS | inactive
EASNCFAIRHFENKFAVETLICGATFD | 3.12
EASNCFAIRHFENKFAVETLICGAVC | inactive
EASNCFAIRHFENKFAVETLICGAVSFTMNGCFR | 6.78
EASNCFAIRHFENKFAVETLICGAYAQPFTLFSR | inactive
EASNCFAIRHFENKFAVETLICGC | -0.513
EASNCFAIRHFENKFAVETLICGCAELLSGAVAF | inactive
EASNCFAIRHFENKFAVETLICGCALRGFTGGYV | 4.52
EASNCFAIRHFENKFAVETLICGCALYQSFRGGL | 3.69
EASNCFAIRHFENKFAVETLICGCASFWRSVCRC | 5.68
EASNCFAIRHFENKFAVETLICGCASVSFKGRRV | 5.82
EASNCFAIRHFENKFAVETLICGCEISATHWLNR | 4.65
EASNCFAIRHFENKFAVETLICGCFLSDTCLLIQ | 2.49
EASNCFAIRHFENKFAVETLICGCGLRYFAGMW | inactive
EASNCFAIRHFENKFAVETLICGCGRARRIVVLP | inactive

same assay, conditions: random library (experiment): 2

Sequence | amyloid nucleation score
EASNCFAIRHFENKFAVETLICFYVLNVVNTRCC | inactive
EASNCFAIRHFENKFAVETLICFYWNSIRRGGQY | 4.43
EASNCFAIRHFENKFAVETLICFYYGMESILMAS | inactive
EASNCFAIRHFENKFAVETLICFYYTAFVKGRE | inactive
EASNCFAIRHFENKFAVETLICGAFTYLRVISRT | inactive
EASNCFAIRHFENKFAVETLICGAILRVSDSVLC | 1.93
EASNCFAIRHFENKFAVETLICGAKKRKTARA | inactive
EASNCFAIRHFENKFAVETLICGALLCV | 6.84
EASNCFAIRHFENKFAVETLICGAMNATSRSGSI | inactive
EASNCFAIRHFENKFAVETLICGAR | inactive
EASNCFAIRHFENKFAVETLICGARGEERGLVHG | inactive
EASNCFAIRHFENKFAVETLICGARNF | inactive
EASNCFAIRHFENKFAVETLICGAVR | inactive
EASNCFAIRHFENKFAVETLICGAY | 0.625
EASNCFAIRHFENKFAVETLICGAYTEAWRGQGG | 2.6
EASNCFAIRHFENKFAVETLICGCCGMLRLLRVG | 5.66
EASNCFAIRHFENKFAVETLICGCELRSSQMNSW | inactive

same assay, conditions: random library (experiment): 3

Sequence | amyloid nucleation score
EASNCFAIRHFENKFAVETLICFYTH | 5.61
EASNCFAIRHFENKFAVETLICFYVMPKGGGEHV | 5.58
EASNCFAIRHFENKFAVETLICFYVTFCIVSRMS | inactive
EASNCFAIRHFENKFAVETLICGACGTNTALFRM | inactive
EASNCFAIRHFENKFAVETLICGACWSTLWKLYL | inactive
EASNCFAIRHFENKFAVETLICGAECLVYRPVGK | inactive
EASNCFAIRHFENKFAVETLICGAEGSMTARLAR | inactive
EASNCFAIRHFENKFAVETLICGAFCQG | 4.41
EASNCFAIRHFENKFAVETLICGAGKLNARVRAR | inactive
EASNCFAIRHFENKFAVETLICGAIS | inactive
EASNCFAIRHFENKFAVETLICGALGVGWGRMRG | 7.03
EASNCFAIRHFENKFAVETLICGALN | inactive
EASNCFAIRHFENKFAVETLICGALP | inactive
EASNCFAIRHFENKFAVETLICGAMEKVLGAELG | inactive
EASNCFAIRHFENKFAVETLICGANGWMRRVVVL | inactive
EASNCFAIRHFENKFAVETLICGAPGCRPRLDCV | inactive
EASNCFAIRHFENKFAVETLICGARERVLLHSVL | inactive
EASNCFAIRHFENKFAVETLICGARGHVMDDEST | inactive
EASNCFAIRHFENKFAVETLICGARTHLPTACPV | inactive
EASNCFAIRHFENKFAVETLICGASYGLLSTGQE | inactive
EASNCFAIRHFENKFAVETLICGATAKVIVSGYE | inactive
EASNCFAIRHFENKFAVETLICGATLRPCRSLKY | inactive
EASNCFAIRHFENKFAVETLICGATMLWRDTR | 4.81
EASNCFAIRHFENKFAVETLICGATRLNMEENGS | inactive
EASNCFAIRHFENKFAVETLICGATSFAVLCGLE | 1.45
EASNCFAIRHFENKFAVETLICGAVRP | inactive
EASNCFAIRHFENKFAVETLICGAWIRGIFRNCR | inactive
EASNCFAIRHFENKFAVETLICGAYRVFSTDVAL | 2.99
EASNCFAIRHFENKFAVETLICGAYTKRAAQPGD | inactive
EASNCFAIRHFENKFAVETLICGCASDGTGVGL | inactive
